This is one part of the list.
Each compound was assayed on T1, C. trachomatis L2/434/Bu expressing GFP (CTL2-GFP). Conditions: total inclusion area; 28.5 h, 10 µM; inhibitor.
T1 construct: L2/434/Bu GFP intracellular growth in HeLa cells
Parameters: species or system HeLa; C. trachomatis total inclusion area by high-content imaging, normalised to DMSO
Outline: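 Imaging read-out: GFP inclusions and Hoechst nuclei captured by high-content imaging after fixation. Inclusion area/number = chlamydial growth; nuclei count = host cell viability. MIC calculated per earlier method.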

Row | SMILES | % of control remaining
1 | CC(=O)N1CCN(c2cncc(-c3ccc(O)cc3)n2)CC1 [CBK126948T] | 82.754
2 | CC1CCCN(CC(O)c2ccc3c(c2)CC(C)N3C(=O)C2CC2)C1 (stereo not shown) [CBK282125] | 104.939
3 | C#CCNC(=O)c1nn(-c2nc3ccccc3s2)c2ccccc12 [CBK048486] | 90.8718
4 | Oc1ccccc1/C=N/Nc1nnc(-c2ccccc2)c(-c2ccccc2)n1 [CBK262003] | 92.6274
5 | O=C(N[C@H]1CO[C@H]2[C@@H]1OC[C@@H]2Nc1nccc(-c2cccs2)n1)c1ccccc1 [CBK289516] | 76.5299
6 | COc1ccccc1Oc1ccc(S(=O)(=O)N2CCOCC2)cc1S(=O)(=O)N1CCOCC1 [CBK265176] | 105.295
7 | CN1CCN(C(c2ccccc2)C(O)C(=O)c2c[nH]c3ccccc23)CC1 (stereo not shown) [CBK267823] | 88.3636
8 | O=C1CC(C(=O)Nc2ccccn2)c2ccccc2N1 (stereo not shown) [CBK297771] | 91.4344
9 | Cc1nn(C)c(C)c1CN(C(=O)C(C)Oc1cccc(F)c1)C1CC1 (stereo not shown) [CBK281479] | 101.282
10 | CC(C)(C)OC(=O)N1CCN(CCC(=O)O)CC1 [CBK287143] | 104.028
11 | CC(=O)c1ccc(OCC(=O)Nc2cnc(-c3cccc(C)c3)c(-c3ccc(N)cc3)n2)cc1 [CBK036722] | 132.941
12 | O=C(NCCCc1nc2cc(F)ccc2[nH]1)[C@@H]1C[C@@H]2C=C[C@H]1C2 [CBK281665] | 93.2107
13 | O=C(O)c1ccc(S(=O)(=O)c2ccc3c(c2)C(=O)N(c2nccs2)C3=O)cc1 [CBK261189] | 97.1599
14 | CN1C2CCCC1CC(OC(=O)c1cccc3[nH]cnc13)C2 (stereo not shown) [CBK090162] | 105.878
15 | CCCc1[nH]n(-c2ccc([N+](=O)[O-])cc2)c(=O)c1/C=N/N1CCN(C)CC1 [CBK262781] | 114.483
16 | COc1ccc(Cl)cc1N/C=C(/C#N)c1nc(-c2cc3cc([N+](=O)[O-])ccc3oc2=O)cs1 [CBK263014] | 129.36
17 | CN1CCN(Cc2n[nH]c(=S)n2-c2cccc(C#N)c2)CC1 [CBK015465] | 103.422
18 | O=C(O)c1ccc(S(=O)(=O)NC2CCS(=O)(=O)C2)cc1 (stereo not shown) [CBK262477] | 92.4179
19 | COc1ccc(S(=O)(=O)NCc2ccccn2)cc1NC(C)=O [CBK269554] | 97.529
20 | FC(F)(F)c1ccnc(Sc2cccs2)n1 [CBK115245] | 112.215
21 | NC(=O)Cn1cc(CN2CCC(c3ccccc3)C2)c2ccccc21 (stereo not shown) [CBK282803] | 73.802
22 | O=C(CO/N=C\c1cccc([N+](=O)[O-])c1)Nc1ccccc1C(=O)O [CBK262051] | 113.409
23 | O=C(C1CCCCC1)N1CCC(n2c(=O)oc3ccccc32)CC1 [CBK284348] | 95.2281
24 | Cc1cc(C)n(CCCn2cncc2-c2cn(C)nc2C)n1 [CBK281772] | 96.7989
25 | CCC12CN3CC(CC)(CN(C1)C3c1c(C)[nH]c3ccccc13)C2=O (stereo not shown) [CBK265547] | 104.188
26 | OCCNc1nc(-c2ccccc2)cn2ccnc12 [CBK066379] | 52.3261

Row | SMILES | % of control remaining
27 | Clc1cccc(-c2nc(NCCCN3CCOCC3)c3ccccc3n2)c1 [CBK267309] | 82.8067
28 | Cn1cc(N2CCN(C(=O)CCOc3ccccc3)CC2)cn1 [CBK305473] | 25.5283
29 | CCc1cc(-c2n[nH]cc2-c2nc(C)cs2)c(O)cc1OC [CBK287934] | 10.5545
30 | CCCS(=O)(=O)N1CCCC(Cc2ccccc2C)(C(=O)OCC)C1 (stereo not shown) [CBK307502] | 67.0684
31 | NC(=O)C(=O)Nc1nc(-c2ccccc2)cs1 [CBK263005] | 103.2
32 | O=C1CCCN1CCCNC(=O)N1CCN(Cc2ccccc2)CC1 [CBK155658] | 98.9423
33 | O=C(O)c1ccccc1NS(=O)(=O)Cc1ccccc1[N+](=O)[O-] [CBK042373] | 101.921
34 | Cc1c(C(=O)N2CCNC(=O)C2C(C)C)cnn1-c1ccc(Br)cc1 (stereo not shown) [CBK306472] | 37.4529
35 | Cc1cc(Cl)c(S(=O)(=O)N(C)C)cc1OCC(=O)Nc1ccccc1 [CBK269705] | 80.0537
36 | Cc1c(NC(=O)CCCC(=O)O)cccc1C(=O)O [CBK265525] | 115.622
37 | Cc1cccc(Cn2nc(C)c(NC(=O)COc3ccccc3)c2C)c1 [CBK270007] | 115.721
38 | CCc1nc2c(OCC=C(C)C)cccn2c1N(C)C(=O)c1cccc(OC)c1 [CBK147448] | 98.9421
39 | CCOC(=O)c1c(NC(=O)CC2Nc3ccccc3NC2=O)sc(C)c1C (stereo not shown) [CBK263381] | 58.4022
40 | Cc1c(CN(Cc2ccc(F)cc2)CC2CCCO2)cnn1C (stereo not shown) [CBK282589] | 99.9629
41 | O=C(NCc1ccccc1Cl)C1CCCN(S(=O)(=O)c2ccccc2)C1 (stereo not shown) [CBK269086] | 112.817
42 | O=C(c1ccc(OC(F)F)cc1)N1CCCCC1 [CBK074223] | 99.7335
43 | CS(=O)(=O)c1ccc(C(=O)Nc2nccs2)cc1 [CBK255213] | 102.897
44 | N/C(=N/c1ccccn1)C(F)(F)F [CBK021049] | 84.3624
45 | O=C(c1cccnc1)N1CCN(CC2(c3ccccc3)CC2)CC1 [CBK282906] | 102.261
46 | O=C(O)c1ccc(Oc2ccc([N+](=O)[O-])cc2)cc1C(=O)O [CBK260961] | 100.365
47 | Cc1ccc(NC(=O)NCCC2=CCCCC2)cc1Cl [CBK044135] | 104.948
48 | O=C(c1nccs1)C1CCN(C(=O)Cc2ccccc2Cl)CC1 [CBK284162] | 84.8017
49 | COCCCOc1cc(N2CCCC2)ncn1 [CBK115896] | 94.833
50 | CCC(CC)(CC(=O)Nc1ccc(N2CCCC2=O)c(C)c1)C(=O)O [CBK297881] | 98.9435
51 | CCCC(=O)c1ccc(S(=O)(=O)N2CCCN(Cc3ccc(F)c(C(F)(F)F)c3)CC2)cc1 [CBK062918] | 60.308
52 | Cc1ccc(N2CC(C(=O)NCCc3ccc(S(N)(=O)=O)cc3)CC2=O)cc1 (stereo not shown) [CBK267531] | 106.893
